Paper PMC12040169 (PLOS Biology, 2025)
The list shows a part of the results.

These compounds were tested on T1, C. trachomatis L2/434/Bu expressing GFP (CTL2-GFP). Conditions: total inclusion area; 28.5 h, 10 µM; inhibitor.
T1 construct: L2/434/Bu GFP intracellular growth in HeLa cells
Set-up: species or system HeLa; C. trachomatis total inclusion area by high-content imaging, normalised to DMSO
In short: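 Bulk GFP and resorufin signals were read first. Wells were then fixed, stained with Hoechst and imaged to detect GFP inclusions and host nuclei. MICs followed the previously described calculation.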

Row | Compound | % of control remaining
1 | c1c(C2CC2)[nH]c2nc(N3CCCC3)nc(N3CCCC3)c12 [CBK016707G] | 0
2 | O=C(O)CNC(=O)CCn1c(-c2ccccc2)cc2ccccc21 [CBK286780] | 83.6074
3 | CCc1nn(CC(=O)NCC2CC2)c(=O)c2cc3sccc3n12 [CBK284055] | 75.9615
4 | CCOC(=O)N1CCC(NCC(C)(C)CN(C)C)CC1 [CBK028516] | 74.0394
5 | c1nncn1/N=C1/CCCc2nonc21 [CBK261065] | 98.9401
6 | O=C(Nc1ccc(Cc2ccc(NC(=O)c3ccccc3F)c(O)c2)cc1O)c1ccccc1F [CBK268366] | 96.0722
7 | COc1ccc(Br)c(C(=O)Nc2cc(N3CCNCC3)c3occc3c2)c1 [CBK061757C] | 80.3763
8 | CC(=O)NC(NC(=S)Nc1sc2c(c1C#N)CCCC2)C(Cl)(Cl)Cl (centres unmarked) [CBK261053] | 98.4714
9 | O=C(Oc1ccc(-n2ccnc2)cc1)c1ccc(-c2ccccc2)cc1 [CBK095145] | 102.498
10 | COc1ccc(CC(=O)Nc2ccc3n(c2=O)C[C@H]2C[C@@H]3CN(C(C)=O)C2)cc1 [CBK289203] | 91.438
11 | O=C(CO)N1CC2(CCN(CCCn3c(=O)[nH]c4ccccc43)CC2)c2ccccc21 [CBK131506] | 83.5455
12 | CC(=O)N/N=C(\C)c1ccc(-n2cnnn2)cc1 [CBK261252] | 110.702
13 | CCN(C)Cc1cccc(CNc2ncnc3c2cnn3CCC#N)c1 [CBK305959] | 56.1365
14 | Cc1nn(C)cc1C(C)NC(=O)C1CC2C=CC1C21CC1 (centres unmarked) [CBK282088] | 88.4201
15 | OC(CNCC1COc2ccccc2O1)C(F)(F)F (centres unmarked) [CBK074834] | 83.1023
16 | Cn1cc(CN2CCC(c3cncc(-c4cccc(C(F)(F)F)c4)n3)CC2)cn1 [CBK286150] | 119.669
17 | CC(=O)Nc1ccc(-c2nc3c4ccccc4c4ccc(I)cc4c3[nH]2)cc1 [CBK262667] | 97.814
18 | O=C(Nc1ccncc1)OCCNC(=O)c1ccncc1 [CBK262150] | 106.023
19 | CCNC(=O)N1CC2(CCN(CCOc3ccc(OC)cc3)CC2)c2ccccc21 [CBK144600T] | 50.015
20 | COc1cc(C(C)c2cc3c(cc2OCC(=O)O)OCO3)cc(OC)c1OC (centres unmarked) [CBK200109] | 99.5984
21 | OCCCNc1nccnc1-c1cccc(F)c1 [CBK088976] | 126.543
22 | Cn1c(SCC(=O)Nc2cccc(C(=O)O)c2)nnc1-c1ccccc1 [CBK300479] | 97.7566
23 | Cc1ccc(N(CC(=O)O)S(C)(=O)=O)cc1C [CBK286978] | 68.4528
